# In article PMC9911399, “Two distinct binding modes provide the RNA-binding protein RbFox with extraordinary sequence specificity”:
# Where a chain is given by its changes, count along the chain named. Some of the results follow.
# T1: RBFOX1 RRM RbFoxmut (Fox-RRM*) (Homo sapiens, UniProt Q9NWB1 109-208, R118D;E147R;N151S;E152T)
# T1 sequence: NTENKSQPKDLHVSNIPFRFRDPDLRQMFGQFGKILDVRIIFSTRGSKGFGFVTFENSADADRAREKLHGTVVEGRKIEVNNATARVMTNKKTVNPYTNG
# B1: AGUUUGG (DNA:RNA)
# RNA: GGGAGACCGGAAUUCAGAUUGUCCAGUUUGGUUAAAUCCCGUCGUAGCCACCA
# DNA 1: CAATCTGAATTCCGGTCTCCC
# DNA 2: TGGTGGCTACGACGGGATT
# B2: UGAAAUG (DNA:RNA)
# RNA: B1 RNA with A25U, U27A, U28A, U29A, G30U
# DNA 1: CAATCTGAATTCCGGTCTCCC
# DNA 2: TGGTGGCTACGACGGGATT
# B3: ACUCAAU (DNA:RNA)
# RNA: B1 RNA with G26C, U28C, U29A, G30A, G31U
# DNA 1: CAATCTGAATTCCGGTCTCCC
# DNA 2: TGGTGGCTACGACGGGATT
# B4: AUUGCAU (DNA:RNA)
# RNA: B1 RNA with G26U, U28G, U29C, G30A, G31U
# DNA 1: CAATCTGAATTCCGGTCTCCC
# DNA 2: TGGTGGCTACGACGGGATT
# B5: CAGGUGG (DNA:RNA)
# RNA: B1 RNA with A25C, G26A, U27G, U28G
# DNA 1: CAATCTGAATTCCGGTCTCCC
# DNA 2: TGGTGGCTACGACGGGATT
# B6: CUCUUAU (DNA:RNA)
# RNA: B1 RNA with A25C, G26U, U27C, G30A, G31U
# DNA 1: CAATCTGAATTCCGGTCTCCC
# DNA 2: TGGTGGCTACGACGGGATT
# B7: UAUCGCA (DNA:RNA)
# RNA: B1 RNA with A25U, G26A, U28C, U29G, G30C, G31A
# DNA 1: CAATCTGAATTCCGGTCTCCC
# DNA 2: TGGTGGCTACGACGGGATT
# B8: ACCUUGG (DNA:RNA)
# RNA: B1 RNA with G26C, U27C
# DNA 1: CAATCTGAATTCCGGTCTCCC
# DNA 2: TGGTGGCTACGACGGGATT
# B9: ACCUGUA (DNA:RNA)
# RNA: B1 RNA with G26C, U27C, U29G, G30U, G31A
# DNA 1: CAATCTGAATTCCGGTCTCCC
# DNA 2: TGGTGGCTACGACGGGATT
# Target: T1, RBFOX1 RRM RbFoxmut (Fox-RRM*)
# Test: EMSA; HiTS-Eq, 1 nM pool, 10 min; buffer printed only for the single-RNA assays: 10 mM Tris pH 7.5, 150 mM NaCl, 3.4 mM EDTA, 0.001% NP-40, 30 C
# Conditions: tags: His6 N-terminal (pET28a); label: 5' 32P
# Summary of the method: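 Purified RbFox RRM (wild type or mutant) was equilibrated for 10 min in 50 µL with 1 nM of a 5′-radiolabelled pool of RNA with 7 randomized nucleotides, its flanks annealed to DNA oligonucleotides, across increasing protein concentrations. Free RNA was separated by 8% native PAGE, excised, reverse-transcribed, PCR-barcoded and sequenced on an Illumina HiSeq 2500. Relative association constants came from read-count changes of each variant against the control reaction, normalised to the cognate motif.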
row,Binder,binding signal
1,B1,0.118 KA relative to UGCAUGU
2,B2,0.158 KA relative to UGCAUGU
3,B3,0.0571 KA relative to UGCAUGU
4,B4,0.13 KA relative to UGCAUGU
5,B5,0.0789 KA relative to UGCAUGU
6,B6,0.112 KA relative to UGCAUGU
7,B7,0.106 KA relative to UGCAUGU
8,B8,0.114 KA relative to UGCAUGU
9,B9,0.156 KA relative to UGCAUGU
